The source of these data is paper PMC4820838.

Where “and” joins values, the source holds several entries; their conditions need not be identical. Identical values can stand only once.

The target of one assay is STAT3-GFP (UniProt P40763). Kind of assay: Number and Brightness (N&B) analysis; moment analysis of confocal frame scans (100 frames, 256 x 256 pixels) of live HeLa cells expressing the fluorescent fusion protein; brightness calibrated against free GFP, YFP or mCherry; cells unstimulated or stimulated with 10 nM oncostatin M (15-60 min), or treated with trichostatin A or actinomycin D.

The target of a further assay is STAT3-YF-GFP (UniProt P40763). Kind of assay: pair correlation of molecular brightness (pCOMB); pair correlation of brightness fluctuations along a 64-pixel confocal line scan from cytoplasm to nucleus of live HeLa cells; amplitude calibrated against free GFP, YFP or mCherry; cells stimulated with 10 nM oncostatin M for 15 min.
In assay [1] the target is STAT3-mCherry (UniProt P40763). Kind of assay: Number and Brightness (N&B) analysis; moment analysis of confocal frame scans (100 frames, 256 x 256 pixels) of live HeLa cells expressing the fluorescent fusion protein; brightness calibrated against free GFP, YFP or mCherry; cells unstimulated or stimulated with 10 nM oncostatin M (15-60 min), or treated with trichostatin A or actinomycin D.

Assay [2] addresses STAT3-mCherry (UniProt P40763). Kind of assay: pair correlation of molecular brightness (pCOMB); pair correlation of brightness fluctuations along a 64-pixel confocal line scan from cytoplasm to nucleus of live HeLa cells; amplitude calibrated against free GFP, YFP or mCherry; cells stimulated with 10 nM oncostatin M for 15 min.

Chain of STAT3-mCherry (chain, as listed by the source): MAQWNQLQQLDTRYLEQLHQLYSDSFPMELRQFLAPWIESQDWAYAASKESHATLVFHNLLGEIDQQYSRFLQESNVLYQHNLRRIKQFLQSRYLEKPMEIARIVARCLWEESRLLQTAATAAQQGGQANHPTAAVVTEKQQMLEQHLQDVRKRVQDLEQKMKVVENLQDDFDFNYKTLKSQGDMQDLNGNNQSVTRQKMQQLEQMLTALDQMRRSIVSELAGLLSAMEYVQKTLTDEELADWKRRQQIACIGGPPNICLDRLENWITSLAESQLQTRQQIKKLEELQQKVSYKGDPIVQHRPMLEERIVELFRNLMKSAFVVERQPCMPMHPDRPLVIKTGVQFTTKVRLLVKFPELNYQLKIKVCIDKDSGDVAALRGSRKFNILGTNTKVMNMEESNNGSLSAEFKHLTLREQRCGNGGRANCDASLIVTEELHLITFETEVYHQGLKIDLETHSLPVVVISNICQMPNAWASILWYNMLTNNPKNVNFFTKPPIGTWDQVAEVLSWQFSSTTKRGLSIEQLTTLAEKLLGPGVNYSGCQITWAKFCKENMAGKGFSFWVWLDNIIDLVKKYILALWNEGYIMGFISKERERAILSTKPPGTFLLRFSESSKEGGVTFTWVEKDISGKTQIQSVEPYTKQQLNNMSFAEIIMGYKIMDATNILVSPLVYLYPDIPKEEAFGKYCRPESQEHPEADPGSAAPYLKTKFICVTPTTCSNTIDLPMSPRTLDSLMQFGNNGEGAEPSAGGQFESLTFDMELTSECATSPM
Chain of STAT3-YF-GFP (chain, as listed by the source): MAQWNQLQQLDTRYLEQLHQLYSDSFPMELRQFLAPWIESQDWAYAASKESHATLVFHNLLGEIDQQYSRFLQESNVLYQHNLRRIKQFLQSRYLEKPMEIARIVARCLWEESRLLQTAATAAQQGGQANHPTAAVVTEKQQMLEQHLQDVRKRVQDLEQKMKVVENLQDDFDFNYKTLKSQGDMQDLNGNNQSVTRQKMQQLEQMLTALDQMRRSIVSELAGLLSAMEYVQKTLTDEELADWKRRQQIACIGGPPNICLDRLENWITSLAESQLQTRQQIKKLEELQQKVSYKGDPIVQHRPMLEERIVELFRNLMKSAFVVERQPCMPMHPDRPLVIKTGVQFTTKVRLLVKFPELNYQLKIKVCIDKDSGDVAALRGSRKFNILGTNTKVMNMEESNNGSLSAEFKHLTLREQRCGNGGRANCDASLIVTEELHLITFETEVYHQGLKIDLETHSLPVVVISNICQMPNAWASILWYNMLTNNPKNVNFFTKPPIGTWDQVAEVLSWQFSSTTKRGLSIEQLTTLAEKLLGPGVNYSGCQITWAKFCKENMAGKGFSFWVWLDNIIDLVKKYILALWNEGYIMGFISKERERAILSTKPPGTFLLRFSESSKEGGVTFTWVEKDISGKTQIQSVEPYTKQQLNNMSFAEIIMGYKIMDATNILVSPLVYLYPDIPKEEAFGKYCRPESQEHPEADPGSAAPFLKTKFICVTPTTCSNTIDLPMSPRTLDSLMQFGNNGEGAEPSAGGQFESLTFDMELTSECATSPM

Take “STAT3-GFP (a stretch of the chain, sequence left out) (natural protein; other documents disagree on this pair)”: the stoichiometry N with STAT3-GFP is 2 and 4. Take “STAT3-YF-GFP (a stretch of the chain, sequence left out) (natural protein; other documents disagree on this pair)”: the stoichiometry N with STAT3-YF-GFP stood at 2. Consider “STAT3-mCherry (a stretch of the chain, sequence left out) (natural protein; other documents disagree on this pair)”, for which the stoichiometry N with STAT3-mCherry [1] is 2 and 4; in the assay with STAT3-mCherry [2] it was 2 and 4.

As usually defined, the stoichiometry N is the number of molecules, sites or subunits per partner or assembly.
